Assay results taken from PubChem BioAssay AID504332 (National Center for Advancing Translational Sciences (NCATS), 2011).
About 31,000 (8.9%) of roughly 350,000 compounds were called active. The inconclusive results got no clear call from the source; some entries with a clear call stand among them for comparison. Calls come from the whole dose curve; as a rule, active = well fitted inhibition curve with a large enough effect; inconclusive = small, poorly fitted or top-dose-only effect; inactive = no such curve, though single readings can be large or run the other way. Potencies of inconclusive entries are doubtful fits and often do not repeat.

Molecular target: Histone-lysine N-methyltransferase EHMT2 (Homo sapiens) (UniProt Q96KQ7)
Assay: qHTS Assay for Inhibitors of Histone Lysine Methyltransferase G9a; note: nearly all actives have a fitted effect of over 75% in size
Conditions: G9a H3K9 monomethylation, AlphaScreen, 2 h; activity, negative = inhibition: at 59 µM (top of the series) unless noted
How it was run: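 G9a (20 nM) preincubated 15 min RT with compounds, then 500 nM biotinylated H3K9 peptide and 20 uM SAM added; 2 h RT reaction. Monomethyl-H3K9 product detected by AlphaScreen with anti-H3K9me1 antibody, streptavidin donor and anti-rabbit IgG acceptor beads.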
% is set by controls: 0 for no effect and ±100 for the full control effect; potency is the fitted concentration of half-maximal effect; tags give direction and shape of the fitted curve.

Chain of UniProt Q96KQ7 (Q96KQ7 whole entry, looked up): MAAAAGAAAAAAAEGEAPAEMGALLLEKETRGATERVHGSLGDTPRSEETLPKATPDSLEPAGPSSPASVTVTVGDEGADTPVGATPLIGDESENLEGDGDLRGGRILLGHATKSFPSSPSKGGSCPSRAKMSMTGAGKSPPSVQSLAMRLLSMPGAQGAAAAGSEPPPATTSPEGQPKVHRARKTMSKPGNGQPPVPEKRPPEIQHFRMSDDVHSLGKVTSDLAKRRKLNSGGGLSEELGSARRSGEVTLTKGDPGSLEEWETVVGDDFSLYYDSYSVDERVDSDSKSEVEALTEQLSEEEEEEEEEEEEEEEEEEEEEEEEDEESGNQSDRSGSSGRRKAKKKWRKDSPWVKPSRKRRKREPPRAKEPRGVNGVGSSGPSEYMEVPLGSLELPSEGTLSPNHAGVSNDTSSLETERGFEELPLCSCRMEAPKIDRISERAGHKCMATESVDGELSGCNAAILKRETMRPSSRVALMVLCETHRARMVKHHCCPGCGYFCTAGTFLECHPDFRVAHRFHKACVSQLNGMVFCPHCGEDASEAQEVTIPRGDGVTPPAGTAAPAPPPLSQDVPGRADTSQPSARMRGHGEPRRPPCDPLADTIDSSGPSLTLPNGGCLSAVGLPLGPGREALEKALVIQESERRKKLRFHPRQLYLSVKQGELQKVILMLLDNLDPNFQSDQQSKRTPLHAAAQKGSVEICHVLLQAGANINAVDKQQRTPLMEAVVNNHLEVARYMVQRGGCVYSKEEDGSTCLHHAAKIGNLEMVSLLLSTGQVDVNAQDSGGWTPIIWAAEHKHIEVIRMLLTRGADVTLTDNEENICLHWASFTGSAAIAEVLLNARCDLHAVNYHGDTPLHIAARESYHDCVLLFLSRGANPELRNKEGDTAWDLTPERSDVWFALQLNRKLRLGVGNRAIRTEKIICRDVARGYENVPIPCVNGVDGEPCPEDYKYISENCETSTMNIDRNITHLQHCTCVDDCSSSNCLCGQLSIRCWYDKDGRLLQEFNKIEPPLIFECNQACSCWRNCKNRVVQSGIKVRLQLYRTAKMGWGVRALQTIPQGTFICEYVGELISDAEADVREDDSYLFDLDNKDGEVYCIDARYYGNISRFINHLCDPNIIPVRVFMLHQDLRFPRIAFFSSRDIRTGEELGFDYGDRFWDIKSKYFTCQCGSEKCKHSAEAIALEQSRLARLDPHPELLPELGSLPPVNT

Row | Compound | Potency | activity, negative = inhibition
1 | COC(=O)CCC(=O)NC(=S)Nc1ccccc1F | inconclusive: 79.4 µM [inhibitor, single point] | –
2 | Cc1[nH]c(=O)[nH]c(=O)c1C1N2CC3(C(C)C)CN1CC(C(C)C)(C2)C3=O (configuration not stated) | inconclusive: 39.8 µM [inhibitor, partial curve, poor fit] | –
3 | Cc1onc(-c2c(F)cccc2Cl)c1C(=O)NCCc1ccncc1 | – | inactive: 14.9% [at 12.7 µM]
4 | COc1ccc(NC(=O)N2CCC3(CC2)CCN(C(=O)c2ccco2)CC3)cc1 | – | inactive: -0.456% [at 12.7 µM]
5 | COc1cccc(=O)c2c(C)n(-c3cc(C)cc(C)c3)c(C)c12 | inconclusive: 89.1 µM [inhibitor, single point] | –
6 | O=C(Nc1ccccc1C(=O)NC1CCCCC1)c1ccccc1 | inconclusive: 17.8 µM [inhibitor, partial curve, poor fit] | –
7 | CCN(CC)S(=O)(=O)c1ccc(NC(=O)CC(NC(C)=O)c2ccccc2)cc1 (configuration not stated) | inconclusive: 35.5 µM [inhibitor, single point] | –
8 | Cc1cccc(-n2ccc(=O)c(C(=O)Nc3ccc(S(=O)(=O)Nc4nccs4)cc3)n2)c1 | inactive | –
9 | CCCCN(CC)CCNC(=O)c1cc2c(=O)[nH]c3ccccc3c2n1C | inconclusive: 7.08 µM [inhibitor, single point] | –
10 | Cc1cc(NC(=O)c2ccc(S(=O)(=O)N3CCCC3)cc2)nc2c1c(=O)oc1ccccc12 | inconclusive: 28.2 µM [inhibitor, partial curve, poor fit] | –
11 | CN(C)S(=O)(=O)c1cc(NC(=O)COC(=O)/C=C/c2ccco2)ccc1Cl | – | inconclusive: -81.9% [inhibitor]
12 | Cc1cccc(C)c1Nc1nnc(SCC(=O)c2ccc3c(c2)NC(=O)CO3)s1 | active: 11.2 µM | –
13 | CC1(C)Cc2c(sc3c2c(=N)n(Cc2ccco2)c(=O)n3Cc2ccc(Cl)cc2)CO1 | inconclusive: 17.8 µM [inhibitor, single point] | –
14 | CSc1ccccc1NC(=O)C1CC(c2ccccc2O)=NO1 (configuration not stated) | – | inconclusive: -72.9% [inhibitor]
15 | CCCC(C(=O)NCc1ccco1)N(C(=O)CNS(=O)(=O)c1ccccc1)c1ccc(OC)cc1 (configuration not stated) | inconclusive: 28.2 µM [inhibitor, full curve] | –
16 | NS(=O)(=O)c1ccc(CNC(=O)CNC(=O)c2ccc(Br)o2)cc1 | inconclusive: 89.1 µM [inhibitor, single point] | –
17 | CCCC(=O)Nc1nnc(Sc2ccc(N(C)C)cc2)s1 | – | inactive: -9.39% [at 12.7 µM]
18 | Cc1ccc(-c2nc(CCN3C(=O)c4ccccc4C3=O)cs2)cc1 | inactive | –
19 | COC(=O)NN=C1CCC(c2ccccc2)CC1 (configuration not stated) | inactive | –
20 | COc1ccc(C(=O)N(C)CCCC2CCCC2)cc1OC1CCN(C(C)=O)CC1 | inconclusive: 39.8 µM [inhibitor, partial curve, poor fit] | –
21 | Cc1cc2nc(/C(C#N)=C\c3ccc(-c4ccccc4C(=O)O)o3)[nH]c2cc1C | inconclusive: 39.8 µM [inhibitor, single point] | –
22 | O=C(Nc1ccc(S(=O)(=O)Nc2ncccn2)cc1)c1ccc2ncsc2c1 | active: 44.7 µM | –
23 | CC(C)N1C(=O)CC2(CC[N+](C)(CCOC(=O)C(c3ccccc3)c3ccccc3)CC2)C1=O (configuration not stated) | inconclusive: 1.58 µM [inhibitor, full curve, poor fit] | –
24 | Cc1ccn2c(C(=O)N/N=C\c3cccs3)c(C)nc2c1 | inconclusive: 28.2 µM [inhibitor, single point] | –

Row | Compound | Potency | activity, negative = inhibition
25 | COc1ccc(Nc2cccccc2=O)cc1 | – | inconclusive: -52.5% [inhibitor]
26 | O=C(Nc1ccccc1)Nc1ccc(C(=O)N2CCCC2)cc1 | inactive | –
27 | CCOCC(=O)Nc1cc(S(=O)(=O)N2CCOCC2)ccc1N1CCCCC1 | active: 7.08 µM | –
28 | O=C1CCCc2c1[nH]c1ccc(Cl)cc21 | inactive | –
29 | O=C(Nc1ccccc1)c1ccc(S(=O)(=O)N2CCOCC2)cc1 | – | inactive: 13% [at 12.7 µM]
30 | O=C(NCc1ccccc1)c1ccc(CSc2nc3cccnc3n2Cc2cccc(F)c2)cc1 | inactive | –
31 | COc1ccc(C)cc1-n1nnc(-c2nc(-c3ccccc3Cl)no2)c1N | inactive | –
32 | COc1ccc(S(=O)(=O)N2CCOC23CCN(S(=O)(=O)c2ccc(F)cc2)CC3)cc1 | inactive | –
33 | COc1cc2nc(C3CCC3)nc(N3CCN(c4ccccn4)CC3)c2cc1OC | active: 50.1 µM | –
34 | O=C(NCc1ccc(F)cc1)c1ccc2c(O)c(S(=O)(=O)c3ccccc3)c(=O)[nH]c2c1 | inconclusive: 8.91 µM [inhibitor, partial curve] | –
35 | CCOC(=O)c1sc(NC(=O)c2ccc(S(=O)(=O)N3CCOCC3)cc2)nc1-c1ccccc1 | active: 44.7 µM | –
36 | CCN(CC)c1ccc(/C=N/OCC(=O)Nc2cccc(C)c2)cc1 | inconclusive: 25.1 µM [inhibitor, single point] | –
37 | O=C1/C(=C/c2ccco2)Oc2c1ccc(O)c2CN1CCCCC1 | inconclusive: 10 µM [inhibitor, full curve, poor fit] | –
38 | CCNC(=S)NNC(=S)NCc1ccccc1 | active: 10 µM | –
39 | COc1cc(C(=O)NC(=S)Nc2ccc(NC(=O)c3ccco3)cc2)cc(OC)c1OC | inactive | –
40 | CCN(C(=O)c1coc(=O)c2ccccc12)c1ccccc1C | inactive | –
41 | O=C1C2C3C=CC(CC3)C2C(=O)N1/N=C/c1ccc(O)c(O)c1 (configuration not stated) | inconclusive: 89.1 µM [inhibitor, single point] | –
42 | C/C(=N\Nc1ccc(S(=O)(=O)Nc2ccccc2)cc1[N+](=O)[O-])c1ccc(N2CCOCC2)cc1 | inconclusive: 20 µM [inhibitor, full curve] | –
43 | O=C(/C=C\NCC(=O)c1ccccc1)c1ccccc1 | active: 6.31 µM | –
44 | COc1ccc(OC)c(NS(=O)(=O)c2ccc(NC(C)=O)cc2)c1 | inactive | –
45 | COc1cc(-c2nc3ccc(N4CCN(C)CC4)cc3[nH]2)cc(OC)c1OC | active: 39.8 µM | –
46 | Cc1cc(Br)c(S(=O)(=O)NCc2ccncc2)cc1C | inconclusive: 89.1 µM [inhibitor, single point] | –
47 | COc1cccc(CNCC2CCCO2)c1 (configuration not stated) | – | inactive: 2.51% [at 0.501 µM]
48 | CCOC(=O)Nc1ccc2c(c1)N(C(=O)CN1CCN(CCO)CC1)c1ccccc1CC2 | inconclusive: 79.4 µM [inhibitor, single point] | –

Row | Compound | Potency | activity, negative = inhibition
49 | Cc1ccc(-c2cc(C(=O)N/N=C/c3ccccc3)n[nH]2)o1 | inconclusive: 50.1 µM [inhibitor, partial curve, poor fit] | –
50 | COCc1cc([C@@H]2C[C@H]3CN(c4ccccc4)C(=O)[C@]34CCCN24)ccc1OC | inconclusive: 79.4 µM [inhibitor, partial curve, poor fit] | –
51 | O=Cc1ccc(Sc2ncccn2)o1 | inconclusive: 89.1 µM [inhibitor, single point] | –
52 | COc1ccc(O)c(/C=N/NC(=S)Nc2cccnc2)c1 | inconclusive: 31.6 µM [inhibitor, partial curve, poor fit] | –
53 | COc1ccc(Nc2cc(C(=O)NC3CCC(C)CC3)c3ccccc3n2)cc1OC (configuration not stated) | inconclusive: 10 µM [inhibitor, partial curve, poor fit] | –
54 | O=C(O)c1cc(NC(=S)NC(=O)C(c2ccccc2)c2ccccc2)ccc1Cl | inconclusive: 89.1 µM [inhibitor, single point] | –
55 | CCc1ccc(NC(=O)Cn2c3[n+](c4c(F)c(F)ccc42)CCCCC3)cc1 | inconclusive: 20 µM [inhibitor, partial curve, poor fit] | –
56 | CN(CCCC(=O)Nc1ccccc1F)S(=O)(=O)c1ccc(F)cc1 | inactive | –
57 | CN(/N=C/c1cc(Cl)cc(Cl)c1O)C(=S)NC(C)(C)C | inconclusive: 31.6 µM [inhibitor, full curve] | –
58 | COC(=O)c1ccc(NC(=O)NCCn2nnc3cc(S(=O)(=O)N(C)C)ccc32)cc1 | inactive | –
59 | CCCCCCCCCCCCCCCCCCOC[C@H](COP(=O)([O-])OCC[N+](C)(C)C)OC | inactive | –
60 | CCC(=O)n1nc(-c2ccco2)nc1N | active: 44.7 µM | –
61 | CCOC(=O)C(/C=C(\C#N)C(=O)OCC)=C(/N)N1CCN(c2ccc(Cl)cc2)CC1 | inconclusive: 44.7 µM [inhibitor, partial curve, poor fit] | –
62 | Cc1ccc(-c2nc3ccccn3c2Nc2ccccc2C)s1 | inconclusive: 11.2 µM [inhibitor, partial curve] | –
63 | CCc1ccc2nc(NC(=O)C3CSC4(C)CCC(=O)N34)sc2c1 (configuration not stated) | active: 28.2 µM | –
64 | Cc1occc1C(=O)NNC(=O)c1cccc(F)c1 | inactive | –
65 | Cc1[nH]c2ccc(C(=O)NC3CCCC3)cc2c1C | – | inactive: 22.1% [at 2.33 µM]
66 | COc1ccc(/C=N/Nc2cc(C)nc(N3CCOCC3)n2)cc1OC | – | inconclusive: -90.1% [inhibitor] [at 12.7 µM]
67 | Cc1ccccc1NC(=S)NNC(=O)c1cccc(Br)c1 | inactive | –
68 | O=C(CN1CCCC1)N1c2ccccc2Sc2ccc(C(F)(F)F)cc21 | inconclusive: 35.5 µM [inhibitor, single point] | –
69 | O=C(CN1C(=O)c2ccccc2C1=O)OCC(=O)N1CCc2ccccc2C1 | inconclusive: 50.1 µM [inhibitor, partial curve, poor fit] | –
70 | CN(Cc1cn(C)nc1-c1ccc(Oc2ccccc2)cc1)C1CCOC1 (configuration not stated) | inconclusive: 70.8 µM [inhibitor, single point] | –
71 | COc1cc(Nc2ncnc(N)n2)cc(OC)c1OC | inactive | –
72 | Cc1cc(Cl)ccc1OCCCC(=O)N1CCCCC1 | – | inactive: 15% [at 12.7 µM]
